Experimental data reported in the supplement of paper PMC3334620.
In all, about 33,000 sequences were measured (“E-score (-0.5 to 0.5)”: median about -0.013, highest 2% from about 0.3 on). The list shows a part of the results.

These sequences were tested against T1, Msn1 (UniProt P22148) (assay: PBM E-score (8-mer binding enrichment) (E-score (-0.5 to 0.5)); higher = stronger / more preferred TF binding; most listed sequences are background and not binding sites). Conditions: protein concentration: 200 nM; construct: GST-full length.
T1 sequence: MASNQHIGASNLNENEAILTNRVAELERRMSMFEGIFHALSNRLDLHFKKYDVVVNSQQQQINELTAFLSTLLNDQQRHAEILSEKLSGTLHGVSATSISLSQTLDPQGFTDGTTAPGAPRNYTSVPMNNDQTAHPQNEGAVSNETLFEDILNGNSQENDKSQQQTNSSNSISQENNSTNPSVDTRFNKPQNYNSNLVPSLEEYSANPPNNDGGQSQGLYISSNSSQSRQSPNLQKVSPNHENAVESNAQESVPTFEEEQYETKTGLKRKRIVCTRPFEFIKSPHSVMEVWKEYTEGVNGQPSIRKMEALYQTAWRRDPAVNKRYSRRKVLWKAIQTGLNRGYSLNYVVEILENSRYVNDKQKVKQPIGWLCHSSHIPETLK
Procedure, shortened: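 GST-tagged yeast TFs (full-length or DNA-binding domain) were made by PURExpress in vitro transcription/translation and applied at about 100-200 nM to universal all-10-mer Agilent arrays. The arrays were made double-stranded by primer extension, on fresh or once-stripped slides. Bound protein was detected with fluorescent anti-GST, and scans were normalised with masliner. Each ungapped eight-base word, pooled with its reverse complement, received an E-score (modified Wilcoxon-Mann-Whitney statistic) from the Universal PBM Analysis Suite.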
For AGTTACCC, the “PBM E-score” value was 0.0144.
GACGCTGC was tested, and the “PBM E-score” value was -0.124.
For GCCAATGA, the “PBM E-score” value was -0.109.
In the case of CTTACCGC, the “PBM E-score” value is reported as -0.164.
With AGACGCAG the “PBM E-score” value was 0.0691.
For ACTCAACA, the “PBM E-score” value was 0.0625.
In the case of GGACCGCA, the “PBM E-score” value is reported as 0.0585.
In the case of CGTGAGGA, the “PBM E-score” value is reported as -0.0845.
With CTACCAAC the “PBM E-score” value was 0.0696.
For GAGGACTC, the “PBM E-score” value was -0.078.
CCGTTTGC was tested, and the “PBM E-score” value was -0.0433.
With AACTCCTA the “PBM E-score” value was -0.112.
With AGATATTG the “PBM E-score” value was 0.0827.
With GTACCTGA the “PBM E-score” value was 0.149.
In the case of TATAAGCA, the “PBM E-score” value is reported as 0.028.
With AAGCACTG the “PBM E-score” value was 0.142.
GTAGTTCA was tested, and the “PBM E-score” value was 0.0427.
For CAAGGCAC, the “PBM E-score” value was -0.165.
In the case of CTGTGGAC, the “PBM E-score” value is reported as 0.178.
CCCCGGGC was tested, and the “PBM E-score” value was -0.292.
For AGAAGTTG, the “PBM E-score” value was 0.0264.
For AGTGGGGG, the “PBM E-score” value was -0.403.
For TAATGTGA, the “PBM E-score” value was -0.0875.
With ATGGAGCC the “PBM E-score” value was -0.177.
For CAATCCTC, the “PBM E-score” value was -0.244.
In the case of ACGAATCA, the “PBM E-score” value is reported as 0.13.
With CGGCCATC the “PBM E-score” value was -0.244.
With AATATGCT the “PBM E-score” value was 0.015.
For TGACGCAA, the “PBM E-score” value was -0.0603.
For AACTGCAT, the “PBM E-score” value was 0.0756.
For AATACTGT, the “PBM E-score” value was 0.202.
In the case of AACCTGAT, the “PBM E-score” value is reported as -0.123.
For CACCGGCG, the “PBM E-score” value was -0.0464.
GGCAGAGA was tested, and the “PBM E-score” value was -0.00515.
For AATATAAG, the “PBM E-score” value was 0.236.
With CCAGCTTA the “PBM E-score” value was -0.0408.
For AAGGGTTA, the “PBM E-score” value was -0.193.
GCGCCCCC was tested, and the “PBM E-score” value was -0.327.
For CCGTCGAG, the “PBM E-score” value was 0.139.
ATTTTGCG was tested, and the “PBM E-score” value was -0.0384.
AAATAATT was tested, and the “PBM E-score” value was 0.262.
For ACGGGGGG, the “PBM E-score” value was -0.324.
In the case of AATATTCC, the “PBM E-score” value is reported as 0.278.
For AATGAACC, the “PBM E-score” value was 0.0209.
With ACCACCGT the “PBM E-score” value was -0.00443.
With CGGCGCAC the “PBM E-score” value was 0.106.
In the case of CCGAATGA, the “PBM E-score” value is reported as 0.162.
With AGCCTCAC the “PBM E-score” value was -0.223.
With GCTCTGTA the “PBM E-score” value was -0.104.
For AGTAAAAA, the “PBM E-score” value was 0.0285.
With CTACGCTC the “PBM E-score” value was -0.183.
In the case of ATCTCCTC, the “PBM E-score” value is reported as -0.137.
For AGTAGGGA, the “PBM E-score” value was -0.00438.
For CGTACGAG, the “PBM E-score” value was -0.0311.
CGTTTGAA was tested, and the “PBM E-score” value was 0.0138.
In the case of CTATGAAG, the “PBM E-score” value is reported as 0.0298.
AAGGTGGC was tested, and the “PBM E-score” value was -0.0935.
In the case of GCGTGAAC, the “PBM E-score” value is reported as -0.0995.
With ATGCGCAT the “PBM E-score” value was 0.299.
ATCGGGCG was tested, and the “PBM E-score” value was -0.0473.
For CGATGAGC, the “PBM E-score” value was -0.17.
AATAGTAC was tested, and the “PBM E-score” value was 0.0765.
ACCCGGCA was tested, and the “PBM E-score” value was -0.0951.
GACGCCGC was tested, and the “PBM E-score” value was -0.1.
In the case of CCGCAATA, the “PBM E-score” value is reported as 0.0969.
In the case of CAACAAAG, the “PBM E-score” value is reported as 0.00876.
With GATACGAA the “PBM E-score” value was 0.0137.
In the case of ACAGTACG, the “PBM E-score” value is reported as -0.102.
In the case of CAAATCGA, the “PBM E-score” value is reported as -0.00221.
With ATACGTTC the “PBM E-score” value was -0.14.
For ACTCTATC, the “PBM E-score” value was 0.0167.
With GGTGCTTA the “PBM E-score” value was 0.00083.
In the case of AGTCCTTA, the “PBM E-score” value is reported as 0.177.
For CCGTTAAA, the “PBM E-score” value was 0.00335.
With CTCAGAAC the “PBM E-score” value was 0.0291.
CACAGCCG was tested, and the “PBM E-score” value was 0.0176.
With AACATCGA the “PBM E-score” value was 0.0685.
In the case of GCCAGGGA, the “PBM E-score” value is reported as -0.262.
In the case of ATCACAAA, the “PBM E-score” value is reported as 0.0717.
For GGGGTAAC, the “PBM E-score” value was -0.127.
With CGGTTCAA the “PBM E-score” value was -0.161.
In the case of AGCGTGGA, the “PBM E-score” value is reported as -5e-05.
For ACAGGCTC, the “PBM E-score” value was -0.0946.
In the case of ATTGCTAG, the “PBM E-score” value is reported as 0.0816.
In the case of GGAGCTCA, the “PBM E-score” value is reported as -0.0253.
GGCACACA was tested, and the “PBM E-score” value was 0.0778.
